# Measured values as given in US3957779A, “Benzo-1,2,4-triazines” (Bayer Aktiengesellschaft, priority 1972, dated 1976).
# Tested on: Staphyloccus aureus
# Experiment: In vivo survival of mice infected intraperitoneally with Staphylococcus aureus
# Conditions: 50 mg/kg single oral dose 30 minutes after infection; 12 mice; untreated controls: none survived
# Description: 12 white mice of strain CF1, which had been infected intraperitoneally each with about 1.5 × 10^8 Staphyloccus aureus organisms, were treated 30 minutes after the infection with 50 mg/kg of the compound from Example 13 in a single oral dose. […] Of 12 un-treated control animals, no animals survived after 24 hours.
compound,measurement,value
"NC(=O)Nc1n[n+]([O-])c2ccccc2[n+]1[O-] [Example 13, 1,4-dioxo-benzo-1,2,4-triazin-3-yl-urea]",survival of infected animals after 24 hours,All animals survived the infection after 24 hours
